Reference: PubChem BioAssay AID1508623 (National Center for Advancing Translational Sciences (NCATS), 2021)
In all, about 48,000 compounds went through this assay and about 450 (0.94%) were called active. About 19% were inconclusive and are not listed. Calls follow the shape of the dose curve; as a rule, active = well fitted inhibition curve with a large enough effect; inconclusive = small, poorly fitted or top-dose-only effect; inactive = no such curve, though single readings can be large or run the other way. Some of the results follow.

Test: Primary qHTS for Identification of Small Molecule Inhibitors of Huntingtin Promoter Activity; also: nearly all actives have a fitted effect of over 50% in size
Settings: HEK293 HTT promoter firefly luciferase reporter (activity 0% = vehicle and -100% = no light), 24 h; series mostly up to 57.5 µM; activity change, negative = inhibition: at the top concentration
In short: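 HEK293 cells carrying firefly luciferase reporters were seeded at 2,500 per well in Opti-MEM and cultured for 24 h. They were then treated with compounds at up to 57.5 uM final for 24 h at 37 degrees C before Dual-Glo luminescence readout.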
Potency is read from the fitted curve at half-maximal effect.

Activity change, negative = inhibition, inactive:
CCc1ccc(S(=O)(=O)c2c[nH]c3cc(OC)c(OC)cc3c2=O)cc1 -21.3%, COc1ccc2cc3cc(C(=O)NCCc4ccccc4)sc3nc2c1Cl -13.2%, Cc1cnc(-c2cnc(NCCNc3ccc(C#N)cn3)nc2-c2ccc(Cl)cc2Cl)[nH]1 -22.4%, Cc1ccccc1NC(=O)Cn1c(=O)n(-c2ccc(CC(=O)NCC3CCCO3)cc2)c(=O)c2ccccc21 (stereo not given) -1.93%, COc1cccc(NC(=O)C(=O)NCC(c2ccc3c(c2)OCO3)N2CCOCC2)c1 (stereo not given) 92.9%, O=C(Cn1c(=O)n(-c2ccc(Cl)cc2)c(=O)c2sc3ccccc3c21)NC1CCCCC1 -13.8%, COc1ccc(-c2cc(C(F)(F)F)nc(NCc3ccccc3)n2)cc1 -27.1%, COc1cc(OC)c(NC(=O)CCn2cccn2)cc1Cl 10%, CN(Cc1ccccc1)C(C(=O)NC1CCCCC1)c1ccc(Cl)cc1 (stereo not given) -3.88%, CC(C=CC=C(C)C=CC1=C(C)CCCC1(C)C)=CC=CC=C(C)C=CC=C(C)C=CC1=C(C)CCCC1(C)C 6.84%, CCN(CCCNC(=O)CSc1cc(=O)n(C)c2cc(Cl)ccc12)c1cccc(C)c1 -30.8%, COc1cc(-c2noc(-c3ccc(N4CCOCC4)c([N+](=O)[O-])c3)n2)cc(OC)c1OC -12.2%, COc1cccc(-c2nc(CS(=O)(=O)CC(=O)Nc3cc(F)ccc3F)c(C)o2)c1 -28.7%, Cc1ccc(NC(=O)CSc2nc3ccccc3c3nc(CCn4cncc4C)nn23)c(C)c1 0%, Cc1ccc(OCC(=O)N(Cc2ccco2)Cc2ccco2)cc1 -10.3%, CCS(=O)(=O)c1nc2ccccc2n1CC(=O)Nc1ccccc1C(=O)OC 35.6% [at 11.5 µM], CCc1ccc(C(=O)c2c(N)c(-c3nc(-c4ccc5c(c4)OCO5)cs3)c3ccccn23)cc1 -2.07%, Oc1c(C(c2ccc(Br)cc2)N2CCOCC2)sc2nc(-c3ccco3)nn12 (stereo not given) -16.2%, COc1ccc(CCNC(=O)CCn2c(=O)c3ccccc3n(Cc3c(C)cc(C)cc3C)c2=O)cc1OC -9.58%, COc1ccc2nc3sc(C(=O)N4CCN(c5ccccc5)CC4)cc3cc2c1 5.34%, CC(C)CCNC(=O)CN1C(=O)c2cccnc2Oc2ccccc21 3.05%, N#Cc1ccccc1S(=O)(=O)N1CCCC(c2nc3c(nnn3Cc3cccc(Cl)c3)c(=O)[nH]2)C1 (stereo not given) -11.3%, CN(C)c1ccc(C(CNC(=O)c2ccccc2F)N2CCc3ccccc32)cc1 (stereo not given) 55.3%, Cc1csc2nc(CCNS(=O)(=O)c3ccccc3)cn12 6.78%, Cc1nn(-c2ccccc2)c2c1N(CCCC(=O)NCc1ccc(Cl)cc1)C(=O)CS2 -1.24%, CN1CCN(C(=O)c2cnn(-c3cccc(Cl)c3)c2C2CCN(C(=O)OC(C)(C)C)CC2)CC1 5.47%, COc1cccc(CNC(=O)c2ccc3c(c2)N(Cc2ccc(C(F)(F)F)cc2)C(=O)c2ccccc2S3)c1OC -23.6%, CCOc1ccccc1CNC(=O)CN(c1ccc(C)cc1)S(=O)(=O)N(C)C 8.26%, Cc1c(NC(C)C)c(=O)n(-c2ccccc2)n1C 3.5%, COc1cc(C(=O)Nc2cccc(OCc3cc(=O)n4c(C)csc4n3)c2)cc(OC)c1OC 25.4%, Cc1nn2c(=O)cc(COC(=O)c3ccccc3NC(=O)C(C)C)nc2s1 -6.86%, COc1cccc(-n2cc(C(=O)Oc3ccc(F)cc3)c3ccccc3c2=O)c1 -27%, Cc1ccc(S(=O)(=O)c2c(Nc3ccccc3)sc(C(=O)c3ccc4c(c3)OCO4)c2N)cc1 -28.3%, Nc1nc(N)c(-c2ccccc2)s1 5.51%, Cc1c(Cl)ccc2sc(NC(=O)c3ccc(S(=O)(=O)N4CCCC4)cc3)nc12 -3.3%, COc1ccc(-c2nc(SCC(=O)NCC3CCCO3)c(-c3ccc(Cl)cc3)[nH]2)cc1 (stereo not given) -17.5%, CCCNC(=O)CCn1nc(-c2ccc(C)cc2)c2ccccc2c1=O -6.52%, Cc1ccc2ncc(C(=O)Nc3cccc(C(F)(F)F)c3)c(=O)n2c1 -2.63%, CCOc1ccc(CCNC(=O)c2cc3c(=O)n(C)c4ccccc4c3s2)cc1OCC -17.5%, COc1ccccc1NC(=O)c1sc2cccc(Cl)c2c1Cl 6.19%, CCCC12CN3CC(C)(CN(C1)C3c1ccc(CC)cc1)C2=O (stereo not given) -8.33%, O=C(CC(c1cccs1)N1Cc2ccccc2C1=O)Nc1ccccc1 (stereo not given) -22%, CCN1CCN(C(=O)Cn2ncc3c4ccccc4n(Cc4ccccc4F)c3c2=O)CC1 -9.58%, O=c1cc2nc(-c3ccccc3)nc(SCc3cccc(Br)c3)n2[nH]1 -19.3%, Cc1cccc(N2CCN(C(c3ccc(F)cc3)c3nnc(-c4ccccc4)o3)CC2)c1C (stereo not given) -22.8%, COc1cccc(N2CCN(C(=O)c3cnc4c(C)cccn4c3=O)CC2)c1 6.86%, Cc1ccccc1-c1nc(NC(=O)CSc2ncnc3sc4c(c23)CCCC4)ns1 -7.37%, Cc1ccc(Cl)cc1N1CCN(C(=O)C(C)n2ncn3cccc3c2=O)CC1 (stereo not given) -20.2%, CCCCN(CCCC)C(=O)c1cc2c(=O)n3ccccc3nc2s1 -12.6%, CCNC(=O)c1c(NC(=O)c2cc(=O)c3ccc(C)c(C)c3o2)sc2c1CCCC2 7.5%, Cc1nn(-c2ccccc2)c2c1cc1c(=O)[nH]c(=O)nc-1n2-c1cccc(C(F)(F)F)c1 -8.31%, COc1ccc(Nc2ncnc3c2cnn3C)c(OC)c1 -3.3%, Cc1ccc(-n2nc3c(=O)n(CCCC(=O)NCc4ccc(F)cc4)nc(C)c3c2C)cc1 -23.2%, O=C(CN1CCN(Cc2ccc(F)cc2)C1=O)NCc1ccccc1 -8.53%, Cc1ccc2c(c1)-c1onc(C(=O)N3CCN(c4cccc(C)c4C)CC3)c1CO2 -13.5%, C=Cc1ccc(Cn2c(C(=O)OC)cc3sc(C)cc32)cc1 15.6%, CC(=O)c1cccc(Nc2ncnc3c2cnn3-c2cccc(Cl)c2)c1 1.19%, COc1cccc(NC(=O)CC2Oc3ccccc3NC2=O)c1 (stereo not given) 4.48%, COc1cccc(NC(=O)c2oc3ccc(S(=O)(=O)N4CCOCC4)cc3c2C)c1 -26.7%, CC(C)OCCCNC(=O)CN1C(=O)CSc2ccc(S(=O)(=O)N3CCOCC3)cc21 -2.42%, CC(=O)Nc1c(C(=O)Nc2ccccc2F)oc2ccccc12 32.5%, CCc1ccc(Nc2nc3c(S(=O)(=O)c4cccc(Cl)c4)nnn3c3ccsc23)cc1 -16.6%, Nc1nc(F)nc2c1ncn2[C@@H]1O[C@H](COP(=O)(O)O)[C@@H](O)[C@H]1O 26.7%, COc1ccc(-n2cc(C(=O)Nc3ccccc3C#N)c3ccccc3c2=O)cc1 -10.2%, O=C(c1cccc([N+](=O)[O-])c1)N1CCN(CCc2ccncc2)CC1 -0.355%, CCOc1ccccc1NC(=O)c1nn(-c2ccc(OC)cc2)c(=O)c2c1c1ccccc1n2C -17.4%, COc1cccc(-n2cc(C(=O)Nc3ccccc3C(N)=O)c3ccccc3c2=O)c1 -2.9%, Cc1nc(SCCOc2ccc(Cl)cc2)[nH]c(=O)c1Cc1ccccc1 -14.1%, CCOc1ccc(NC(=O)Cn2c(=O)n(Cc3ccccc3)c(=O)c3c4c(sc32)CN(C(C)=O)CC4)cc1 -8.3%, Cc1ccc(NC(=O)CN2C(=O)COc3ccc(S(=O)(=O)N4CCOCC4)cc32)c(Cl)c1 2.63%, COc1ccccc1NC(=O)C1=C(C)Nc2ncnn2C1c1sccc1C (stereo not given) -8.37%, Cc1ccccc1CNC(=O)Cn1cc2c(n1)-c1c(oc(C(=O)N3CCCC3)c1C)CC2 -28%, COc1ccc(OC)c(CNC(=O)CCC(=O)N2Cc3ccccc3Oc3ncccc32)c1 0.0037%, COc1ccc2nc(NC(=O)c3nc(SCc4cccc(C)c4)ncc3Cl)sc2c1 -14.7%, COc1ccc(N2CC(NC(=O)C3CCCC3)CC2=O)cc1 (stereo not given) -11.5%, COc1ccc(N(CC(=O)N2CCN(c3ccc(F)cc3)CC2)S(=O)(=O)c2c(C)nn(C)c2C)cc1 -10.5%, Cc1cccc(C(=O)Nc2sc3c(c2C(=O)O)CCCC3)c1 -13.2%, Cc1cc(C)cc(NC(=O)CN(C)S(=O)(=O)c2ccc3c(c2)CCC(=O)N3)c1 -18.3%, COc1cccc(CNC(=O)CC(c2ccc(C)cc2)N2Cc3ccccc3C2=O)c1 (stereo not given) -11.8%, CCOC(=O)C(CC)Sc1nnc2[nH]c(=O)cc(C)n12 (stereo not given) -12.3%, Cc1ccc(CNC(=O)c2cnn(-c3ccc(F)cc3F)c2C2CCN(C(=O)OC(C)(C)C)CC2)cc1 -24.4%, CCCOc1ccc(C2C(=O)N(C3CCCCC3)CC(=O)N2CCC2=CCCCC2)cc1OC (stereo not given) 3.55%, COc1ccc(NS(=O)(=O)c2ccc3c(c2)n(C)c(=O)c(=O)n3C)cc1Cl -17.6%, O=C(CSc1n[nH]c(-c2ccccc2)n1)NCCc1ccccc1 -14.1%, NC[C@H]1O[C@H](O[C@H]2[C@@H](O)[C@@H](O[C@H]3O[C@H](CO)[C@@H](O)[C@H](N)[C@@H]3O)[C@H](N)C[C@@H]2N)[C@H](N)C[C@H]1O 2.73%, COc1cccc(CNC(=O)CCS(=O)(=O)c2cc3c4c(c2)CCN4C(=O)CC3)c1 -18%, COc1ccccc1-c1ccnc2c(-c3ccc(Br)cc3)c(C)nn12 -6.81%, CCc1ccc(Cn2c(CNS(=O)(=O)c3ccc(Cl)s3)nc3cccnc32)cc1 -21.2%, CCOC(=O)c1cc2c(=O)n3ccccc3nc2n(CC2CCCO2)c1=NC(=O)c1ccccc1F (stereo not given) -7.99%, COc1ccc(CNC(=O)C(C)n2nc(C)c3sc4ccccc4c3c2=O)cc1OC (stereo not given) -12.8%, Cc1ccccc1NC(=O)CSc1nnc(-c2cccc(Cl)c2)o1 19.1%, Cc1nn2c(=O)cc(COC(=O)c3ccc(NC(=O)c4ccc(C(C)(C)C)cc4)cc3)nc2s1 -13.5%, Cc1csc2nc(-c3cccc(NC(=O)c4ccccc4F)c3)cn12 21.7%, Cc1ccc(C)c(N2CCN(C(=O)c3cc(S(=O)(=O)N4CCCC4)c[nH]3)CC2)c1 -20.6%

Potency, active:
CC(C)(C)c1ccc(S(=O)(=O)N2CCC(c3ccncc3)CC2)cc1 15.8 µM
